This is an account of results in the supplement of paper PMC11417369.

± gives the standard deviation of the averaged measurements. The list shows a part of the results.

This test concerns PfAP2-G AP2 domain (GST-tagged). Description: gcPBM binding intensity (ln(normalized median fluorescence intensity)); higher = stronger DNA binding. In a few lines:
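Alexa488 anti-GST antibody, scanned at 488 nm, detected GST-tagged P. falciparum DNA-binding domains that had been expressed in E. coli and incubated for 1 h on an Agilent 4 × 180k array. The array carried primer-extended double-stranded 36-bp intergenic genomic probes and negative controls. Binding intensity is the highest Masliner-normalised natural-log median intensity across replicate spots of either orientation of each probe.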
Consider “TTTAACGTTGAATATACACACATATATATATATATA [CACACA_site3698]”, for which the “gcPBM binding intensity (ln)” value is 10.1 ± 0.35.
For “ATATATTTACATATTACACACAATATTGTACACATA [CACACA_site6564]”, the “gcPBM binding intensity (ln)” value is 11.5 ± 0.99.
The result for “CTATTTCAGAAACACACACACACAAACAAACATATA [CACACA_site978]” reads 10.2 ± 0.31; that for “CAAGAAATTTACAAACGTACATATGTTCATACAAGG [XGTACX_site2372]”, 11.2 ± 0.48; that for “TTAGAGAAACAAAATTGTACATTATAAATTTGCCTT [XGTACX_site440]”, 10.7 ± 0.34.
The value for “TATTTGAAAGCCAATTGTACTTTAGTTTTTGAAACA [XGTACX_site5542]” was 11.1 ± 0.9.
The result for “TTAAATATAATATTATGTACTAAATATTTTTTTATT [XGTACX_site6121]” reads 11.1 ± 0.75; that for TTTCTTTTTAAATAGGTGCATATTTTTATAAATATA, 10.1 ± 0.38.
Turning to “ATAAATTTCCTCGTTTTTTTTTTTTTTTTTTTTTTT [CACACA_negctrl_site1173]”, the “gcPBM binding intensity (ln)” value was determined as 11.1 ± 0.58.
The value for “AAAAATATTTATAACACACACATAATATTTATATAT [CACACA_site7238]” was 10.05 ± 0.028; that for “TTTATATATATTCTCACACACTTTTTATTTTAACAA [CACACA_site4534]” was 10 ± 0.11; that for “ATCTGTCGACAGGACAGTACACAGTAGCCAGGAAAT [XGTACX_site1994]” was 11.1 ± 0.67.
The result for “ATATAAAAATGTAAGGGTACATAATAAATAATCAAA [XGTACX_site5217]” reads 11.2 ± 0.67; that for “ATTTAGAAAAATAAAACACACATATATATGTAAATA [CACACA_site4113]”, 9.845 ± 0.078.
Consider “TATATATATATATATATATATATGTATGTGCATTTA [TGCATGCA_negctrl_site53]”, for which the “gcPBM binding intensity (ln)” value is 9.85 ± 0.38.
The value for TTTTTGTTATTTTTAGTGCACATTTAAGGGTGTATT was 10.6 ± 0.51; that for “GGAAAAAATATATGCACACCCCCCAAAAAAAAAAAA [CACACA_site2222]” was 11.3 ± 0.85; that for “AAAAAATATTAATATAGTACTTTATATTTATAAGTA [XGTACX_site6895]” was 10.9 ± 0.62.
The value for “AATACGGCAAACATTAAAAAATATAATAACAATAAA [CACACA_negctrl_site868]” was 9.91 ± 0.042; that for “GAAGGAAAAACAGAATGTACATAAATAAACGTATAT [XGTACX_site753]” was 11 ± 0.38.
As for “ACAAAATTTACAAAATGTACAAAATTTACAAAATGT [XGTACX_site6464]”, the “gcPBM binding intensity (ln)” value came out at 10.6 ± 0.3.
“TATATCTTACTTTTTGCACACACTAATATTATTGTT [CACACA_site1640]”: the “gcPBM binding intensity (ln)” value is 10.1 ± 0.13.
The result for “AAACAAAAAAGAAACACACACTAATTAAATTTTCTT [CACACA_site4746]” reads 9.77 ± 0.16.
The result for “ATAATTAAAAAAGGAATATATATATATATATATATA [GTGCAC_negctrl_site343]” reads 9.81 ± 0.45.
As for “CGTATGACATAATATTGTACTTTTGATATACATCAT [XGTACX_site7366]”, the “gcPBM binding intensity (ln)” value is 11.2 ± 0.83.
The value for TTTAATAATATTTAGGTGCTATATATTATATGTATA was 9.69 ± 0.042; that for “TAAATTAATAAAAAGTGTACATAATATACATATATA [XGTACX_site8604]” was 11.3 ± 0.66.
The result for TACAATACCGTACAGGTGCAACTAGCCAAAAAAAAG reads 11.1 ± 0.87; that for “ATAAATCATAAGGAGAGTACATAAATAAAATAATCA [XGTACX_site8825]”, 11.2 ± 0.71; that for “ACAACATGCACACGCACACACAAAAAAAGCATGCAT [CACACA_site6185]”, 10.3 ± 0.3.
The value for “ATGCTTATTATTTATTGTACTGAATAAATATATCTG [XGTACX_site4483]” was 11 ± 0.65; that for “TATAAAAAATATAATTGTACATAAAGGTTAAAATGT [XGTACX_site6138]” was 11 ± 0.54.
For “TTATTTCTACCTTTTTGTACACATTATTATGAAACC [XGTACX_site5325]”, the “gcPBM binding intensity (ln)” value worked out at 11.3 ± 0.81.
The result for “CTCAATATATTTGATTTACACACTTACAATGTATAT [CACACA_site8982]” reads 10.04 ± 0.078.
Regarding “AAGTGGCATATAAGTAAAAAATATATACAAGTATAT [GTGCAC_negctrl_site427]”, the “gcPBM binding intensity (ln)” value was found to be 9.915 ± 0.021.
The result for “TATTAAAGATACTCGGTATAAATAAATTTTAATGTG [XGTACX_negctrl_site239]” reads 10.5 ± 0.47; that for “ATATAAAATAGACACGCACACAAAAAAAAAAAAAAA [CACACA_site3522]”, 10.2 ± 0.64.
The result for “CTATAATATAGGTATACACACATATTATAGAATATT [CACACA_site7696]” reads 9.915 ± 0.049; that for “TATGTCAAAAAATAATGTACAAAAAAATTAACATAA [XGTACX_site5463]”, 10.8 ± 0.4.
The value for “TATATATGGAAAAGGTGTACATTCAATATATATATA [XGTACX_site3167]” was 11.4 ± 0.82; that for “TTTATTTTGTAGTGTACACATATATATATATATATA [CACACA_site5843]” was 11.7 ± 0.96.
Take “AAAATATTATTTTGTTGTACATATAAAATTTTAAGC [XGTACX_site1866]”: the “gcPBM binding intensity (ln)” value worked out at 11.4 ± 0.86.
“TACAAAATAAGACATGCATGTTATACATATATATTT [TGCATGCA_site321]”: the “gcPBM binding intensity (ln)” value is 9.89 ± 0.071.
In the case of TATATTTTTTTTCTAGTGCATATTATTAATTAAGTT, the “gcPBM binding intensity (ln)” value amounted to 10.04 ± 0.049.
